± gives the standard deviation of the averaged measurements. The list shows a part of the results.
test system: PfAP2-EXP AP2 domain (GST-tagged); test: gcPBM binding intensity (ln(normalized median fluorescence intensity)); higher = stronger DNA binding
How it was run: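 GST-fused DNA-binding domains of P. falciparum, expressed in E. coli, were applied at about 25 μg on average for 1 h to an Agilent 4 × 180k array of primer-extended double-stranded 36-bp intergenic genomic probes and negative controls. Binding intensity is the highest Masliner-normalised natural-log median intensity across replicate spots of either probe orientation, measured with Alexa488 anti-GST antibody and a 488 nm scan.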

Row | Sequence | gcPBM binding intensity (ln)
1 | AAATATAATAACGAACGTACTTATTATAATTTGTAA [XGTACX_site2342] | 8.32 ± 0.25
2 | TATTTATATATATGATGTACATAAGGTGTAATGTTA [XGTACX_site5591] | 8.82 ± 0.46
3 | ATATATATTTAATGTTGTACATAAAAAATATATAAA [XGTACX_site7774] | 8.32 ± 0.29
4 | TACATGAATATTTATACATGCACACTAAAATAAAGA [TGCATGCA_site611] | 8.96 ± 0.21
5 | TATTTACATACAAAATGTACAAAAATATATTTTTTT [XGTACX_site888] | 8.42 ± 0.37
6 | TATTAACACAATAGCGCACACTTTTAATATTTTATA [CACACA_site1617] | 8.79 ± 0.33
7 | AAAGAATACAAAATTGCACACATATTGTGAAAATGT [CACACA_site9327] | 8.59 ± 0.38
8 | ATATAATGTTGTAATAGTACTTTTTTCATATAAATA [XGTACX_site2666] | 8.55 ± 0.38
9 | CTTAAATTGAAATGTTGTACAAAGTAAAAACAATGA [XGTACX_site2123] | 8.74 ± 0.43
10 | ATTTCTAAATGTTGGTGTACGTTTTTTTATAACCTT [XGTACX_site1752] | 8.98 ± 0.68
11 | ATTATTTAAAAAAAATGTACATAATAAATATGAACG [XGTACX_site4010] | 8.31 ± 0.23
12 | AATAAATGGAATGTCACACATATATATATATATATA [CACACA_site4869] | 10.2 ± 0.37
13 | AAAAAAAAGAAAGAAAGTACAAATTATAAAATGAAC [XGTACX_site860] | 8.87 ± 0.47
14 | TAAATTAAAAAACACACACACAAAAAAAAAAAAAAA [CACACA_site2263] | 8.29 ± 0.35
15 | AGTGTATGTATATAAACACACATACATATTTATAAC [CACACA_site6777] | 8.53 ± 0.28
16 | TACAAAAAAATAAATAATAAAAAAAAATATATATAA [XGTACX_negctrl_site344] | 8.38 ± 0.38
17 | TTGATATTATTGTATAAACATAATAGAGATAAAGAG [TGCATGCA_negctrl_site455] | 8.82 ± 0.33
18 | CAGGTGCACTATATTACACACGCTTCTTTTTTTTTA [CACACA_site2069] | 9.95 ± 0.98
19 | AACATGTTAACTAAATGTACACACCTATGTTGATGT [XGTACX_site3777] | 8.54 ± 0.35
20 | TGAAGGATATATTCCGTGCACATATAAATATATACA | 8.735 ± 0.007
21 | GGAAAACACAAAAACTGTACATTTATTCAACATATA [XGTACX_site5831] | 8.62 ± 0.47
22 | TATATACATATATACACACACATATATATATATATA [CACACA_site2805] | 9.98 ± 0.45
23 | ATAGGTAAAAAGTATACACACGTTGACACATTCTTT [CACACA_site4794] | 8.52 ± 0.58

Row | Sequence | gcPBM binding intensity (ln)
24 | ATTTTAAAAAGGATAGTGCAAATGTTAAAATAGGAC | 9.42 ± 0.35
25 | AAATAATACAAGGGCTGTACATAAAAAGGAGTATAT [XGTACX_site839] | 9.23 ± 0.47
26 | GTATATATCCCAAAATGTACATAATTTATTATTTAT [XGTACX_site2842] | 8.51 ± 0.42
27 | AGAAAAAAAAAAAGTACACACATATAACATATAGAT [CACACA_site7410] | 8.73 ± 0.49
28 | ATTTATTTTCTGTGTACACATATGTTGGGTATTTTA [CACACA_site5902] | 9.14 ± 0.45
29 | TTTTATTTATAATACTCACACATTTATATTACATAT [CACACA_site6000] | 8.55 ± 0.34
30 | CAAAAGGATGTGGGATGTACATATGAAAAAAAAAAA [XGTACX_site8059] | 8.9 ± 0.63
31 | ATTACTAAAAAATATAAACACACATATATTTTACAT [CACACA_site8633] | 8.45 ± 0.35
32 | TAAATTTAAAAATCTGCACACATTTAAAAAAAAAAA [CACACA_site2515] | 8.39 ± 0.33
33 | TTGTATGTAAAAAAGTGTACATGAGTGATTATATAA [XGTACX_site8166] | 8.74 ± 0.4
34 | GGTCTTTTTTTCAAAAGTACATAAATAAAAAAGGTT [XGTACX_site2894] | 8.74 ± 0.47
35 | GAAAATTTAAAAAGAGTGCATTATATGTTTGAATAT [GTGCAC_site9564] | 8.77 ± 0.028
36 | AATAAAATAATAAAAGCACACAAGAATACACCCAAA [CACACA_site7919] | 9 ± 0.33
37 | TTTAACGAATAAAAATGTACAAATTTATACATTTAT [XGTACX_site2805] | 8.29 ± 0.42
38 | CTTTTTTTCTTTCCAAGTACTAAATTCATACAAATT [XGTACX_site2605] | 8.63 ± 0.33
39 | ATAATAACTGATAAATGTACATATAAATTTTATGAT [XGTACX_site195] | 8.73 ± 0.36
40 | AGGATATGCGGACACACACACATATATATATATATA [CACACA_site5247] | 10.1 ± 0.47
41 | ATAATTTAAAAACATTGTACATTAATATATATGTAT [XGTACX_site8970] | 8.28 ± 0.3
42 | ATACTCACGAAACACACACACAATATATATATATAT [CACACA_site4136] | 10.1 ± 0.48
43 | TTTATATTTCTTCATCGTACACATAAAAAAAAAAAA [XGTACX_site3244] | 8.68 ± 0.41
44 | GAAAATATTAAATGAAGTACAATATTTATGTTACTT [XGTACX_site8737] | 8.34 ± 0.34
45 | TTTTATATTTTAAGAGTGCATTTTATATCTTTTTCT | 8.48 ± 0.24
46 | TGAAAGAATGTTAATAGTACACACAATTATTATATA [XGTACX_site7936] | 8.48 ± 0.32

Row | Sequence | gcPBM binding intensity (ln)
47 | ATTGATATTGTATAATGTACAGGAAAAAAAAAAAAA [XGTACX_site526] | 8.71 ± 0.52
48 | TAAGAACTATTCAGTAGTACCTATATGGATTACTAA [XGTACX_site4278] | 8.04 ± 0.38
49 | TGAAAGAACCTGATTACACACATAAGTTATAAATAT [CACACA_site6165] | 8.3 ± 0.54
50 | TTCTTTATTTTTTCTACACACATTATGTATTCAAAG [CACACA_site3527] | 9.04 ± 0.43
51 | AATATATATTTGTGTACACATTATATATATATATAT [CACACA_site6103] | 10 ± 0.35
52 | AATCTCAGAATATACTGTACTTTAAGAAAAAAAAAA [XGTACX_site110] | 8.32 ± 0.31
53 | AAAATTTAAATAGGAAGTACGTTCACTAAGAAAATA [XGTACX_site6546] | 9.05 ± 0.52
54 | AAATAAAGATATATATATATATATATATATAATTTT [CACACA_negctrl_site30] | 8.59 ± 0.23
55 | AATATAAAAAGGCACACACACAAAAAAAAAAAAAAA [CACACA_site896] | 8.26 ± 0.49
56 | AAATATTTTGCATACACATGCAAATATTTTTTACAT [TGCATGCA_site554] | 8.6 ± 0.085
57 | CATAAATCAGCCATAACACACATACCTATATACATA [CACACA_site6324] | 8.44 ± 0.42
58 | AAAATGTGCATATTTGCACACTTCAATATATATATA [CACACA_site1791] | 9.73 ± 0.18
59 | ATAGGTTCCCAAAATGCACACCAATGAAATTATTTA [CACACA_site8081] | 8.655 ± 0.007
60 | CAAGCTTTTTCCTTTACACACATTAGTTATTTATAT [CACACA_site6781] | 8.84 ± 0.61
61 | ATATTATTTTAAAGTACACACATATATTAAGATATA [CACACA_site5306] | 8.44 ± 0.26
62 | CAGTATTACATGAGGACACACACAAAAAAAATATAT [CACACA_site8156] | 8.97 ± 0.63
63 | TTAATATATTATCTGGTGCATAAACACGTTATACCT | 8.84 ± 0.2
64 | TATTTTATATTTTATGCACACTTATAAGAAATATGT [CACACA_site5647] | 8.71 ± 0.28
65 | ATGATTTCACAAGACACACACATACAAATTTATATA [CACACA_site3909] | 8.7 ± 0.32
66 | TATTAATATGGTAATACACACTAATATACTTTTGTT [CACACA_site6860] | 8.32 ± 0.41
67 | ATATATATATATATATGTACGTATTCATAAACAACA [XGTACX_site4282] | 10.2 ± 0.6
68 | TTTAATGTTACTCCTTGTACACAAAATAGTGTTATA [XGTACX_site8416] | 8.47 ± 0.28
69 | CTGTAAAAAATATAAACACACATAGAGATATATAAA [CACACA_site6292] | 8.7 ± 0.41

Row | Sequence | gcPBM binding intensity (ln)
70 | TAAGTATATTTTATATGTACTTATATATTTAATTTT [XGTACX_site4615] | 7.99 ± 0.071
71 | TTTAAAATTATAAGGATTAAAAAAAAAAAAAATAAA [CACACA_negctrl_site114] | 8.27 ± 0.45
72 | AACAAATAAAAAAAAATAAAAATAAAAATAAAAAAA [XGTACX_negctrl_site451] | 8.38 ± 0.38
73 | TTATTTATGAAGTATACACACAATATAGATTTATAT [CACACA_site6703] | 8.39 ± 0.45
74 | AAGAATTATATTAATAGTACATATATATTAATTTAT [XGTACX_site5713] | 8.22 ± 0.45
75 | TTTTGTTATTATAAATAGTAACATTTGTGAATATAT [TGCATGCA_negctrl_site132] | 8.26 ± 0.55
76 | AAGACATTTTTTTGTTGTACGTCTTCATTTATTGTA [XGTACX_site2890] | 8.71 ± 0.28
77 | ATGGAAGGATAATAAAAACCTTTACCTTTCTGTTTA [GTGCAC_negctrl_site380] | 8.12 ± 0.25
78 | ATAATGAAAACAAGCACACATACATAAAATAAAATA [CACACA_site3257] | 8.89 ± 0.49
79 | ATAAATTTTTAAACAGCACACATAAATATAATATAT [CACACA_site8691] | 8.75 ± 0.34
80 | AATATTACAATTTGGTGTACAGGTGCACATGCCTCA [XGTACX_site1730] | 9.4 ± 0.51
81 | TAGCTTATAAGATATGCACACACAACACTTACAAAA [CACACA_site8174] | 8.59 ± 0.46
82 | TCTACAATTTTAATTACACACTATAAAAAAGAAAGA [CACACA_site5624] | 8.57 ± 0.45
83 | ACTTGTAAGAGACACACACACACACGGATATAAATA [CACACA_site6517] | 8.91 ± 0.53
84 | ACACATATATTAAATGTGCACTGAAATATGCATATA [GTGCAC_site9936] | 8.85 ± 0.14
85 | TTATTTTCCCTTTGTGCATGCAGTTTACTTTTTGTG [TGCATGCA_site993] | 10.4 ± 0.64
86 | ATATATGTATATTTATGTACGTATTCCTGTATAGTC [XGTACX_site5763] | 8.57 ± 0.3
87 | CAAAATAAAAATAACACACACATTTATTTATATACA [CACACA_site6679] | 8.47 ± 0.42
88 | ACACAAGCACACAAATGTACATATATATATATATAT [XGTACX_site5146] | 10.2 ± 0.13
89 | GGAAAAAAAAATAAATGTACGAATTAACATATCAAA [XGTACX_site5653] | 8.48 ± 0.42
90 | GTAACATTTTAAATATATACATATAATGTATTTATA [GTGCAC_negctrl_site344] | 8.21 ± 0.35
